The record followed here is the supplement of paper PMC8512760.

Among the test systems are HCC-1143; HCC-1187; MDA-468; SUM-149.
What all share (experiment): cell viability relative to vehicle (% of vehicle); basal-like triple-negative breast cancer lines; higher = less cytotoxic
Holding throughout (conditions): 10 µM; 72 h

The list shows a part of the results. Single values are uncertain, as repeats are few or missing.
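Also: stably firefly luciferase-GFP labeled cells in 96-well plates, viability read as luciferase photon flux after d-luciferin addition, treated wells normalized to vehicle wells, single-dose high-throughput screen.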

In the case of `CN(C)CCc1c[nH]c2ccc(CS(=O)(=O)N3CCCC3)cc12.O=C(O)CC(O)C(=O)O` [Almotriptan Malate], the cell viability with HCC-1143 was found to be 71; in the assay with HCC-1187, 94.5; with MDA-468, 101; with SUM-149 it was 87.5.
The like results for `Cc1cc(C#N)cc(C)c1Oc1nc(Nc2ccc(C#N)cc2)nc(N)c1Br` [Etravirine (TMC125)] were, in that order, 67, 56, 118 and 81.7.
On to `Cc1cn(-c2cc(NC(=O)c3ccc(C)c(Nc4nccc(-c5cccnc5)n4)c3)cc(C(F)(F)F)c2)cn1` [Nilotinib(AMN-107)], for which the cell viability was 105 in the assay on HCC-1143, 101 with HCC-1187, 103 in the assay with MDA-468 and 119 with SUM-149.
The like results for `CC(C)[N+]1(C)C2CCC1CC(OC(=O)C(CO)c1ccccc1)C2.[Br-]` (stereo unspecified) [Ipratropium Bromide] were, in that order, 140, 122, 151 and 150.
The like results for `Cl.O=C(c1ccc(OCCN2CCCCC2)cc1)c1c(-c2ccc(O)cc2)sc2cc(O)ccc12` [Raloxifene HCl] were, in that order, 107, 156, 139 and 147.
Take `CCCc1nn(C)c2c(=O)nc(-c3cc(S(=O)(=O)N4CCN(C)CC4)ccc3OCC)[nH]c12` [Sildenafil]: the cell viability with HCC-1143 was 65.5; in the assay on HCC-1187 it was 93; in the assay on MDA-468, 87.2; in the assay with SUM-149 it was 75.6.
For `Nc1nc(N)c2nc(-c3ccccc3)c(N)nc2n1` [Triamterene], in that order: 61.6, 114, 99.3 and 126.
On to `CC(=O)OC1(C(C)=O)CCC2C3C=C(C)C4=CC(=O)CCC4(C)C3CCC21C` (stereo unspecified) [Megestrol Acetate], for which the cell viability turned out to be 81.3 with HCC-1143, 104 in the assay with HCC-1187, 109 with MDA-468 and 108 in the assay on SUM-149.
For `NC(=O)NO` [Hydroxyurea], in that order: 83.7, 95.1, 115 and 102.
